Results: the RNAGym collection of RNA variant scans (doi:10.1093/nar/gkz1192)
The source gives no read counts; variants with many changes may rest on few reads.

B1: CPEB3 Ribozyme (parent)
chain: UAACAGGGGGCCACAGCAGAAGCGUUCACGUCGCAGCCCCUGUCAGAUUCUGGUGAAUCUGCGAAUUCUGCUGUAUAUCUC

Variants of: B1
Test: self-cleavage, relative activity (ratio to wild type); higher = more cleavage; in vitro, sequencing
Summary of the method: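 Relative activity compares each variant's cleaved/total read fraction with that of the unmutated ribozyme. To get these fractions, barcoded CPEB3 ribozyme libraries from rounds of error-prone PCR were transcribed with T7 RNA polymerase for 5 hours at 37°C and then given 15 min of DNase I treatment before EDTA was added. The RNAs were reverse transcribed with template switching and sequenced on Illumina, and DNA sequencing linked barcodes to variants. A minimum of 5 reads applied, and three batches were averaged.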
For C11U U25C U41A U66C, the self-cleavage was 0.03.
For C11U U25C U43C C62U A65G, the self-cleavage was 0.04.
C11U U25C U49C showed a self-cleavage of 0.23.
Variant C11U U25C U60A U69A has a self-cleavage of 0.13.
With C11U U25C U80A the self-cleavage was 0.4.
In the case of C11U U26A U49A U66C, the self-cleavage is reported as 0.06.
C11U U26A U58C gave a self-cleavage of 0.19.
In the case of C11U U26A U80C, the self-cleavage is reported as 0.31.
For C11U U26C A28U A65G A77G, the self-cleavage was 0.04.
For C11U U26C A45G U60C U67A U74C, the self-cleavage was 0.13.
With C11U U26C A56U the self-cleavage was 0.05.
C11U U26C U43A U72A gave a self-cleavage of 0.07.
Variant C11U U31A U67C U78A has a self-cleavage of 0.15.
For C11U U31C U54C, the self-cleavage was 0.24.
C11U U31C U60C C68A gave a self-cleavage of 0.05.
C11U U31C U74A gave a self-cleavage of 0.54.
Work on C11U U31G A35G U78G yielded a self-cleavage of 0.99.
Work on C11U U31G A45U U80C yielded a self-cleavage of 0.15.
C11U U31G A64U gave a self-cleavage of 0.09.
C11U U41A A45G U49C U51G showed a self-cleavage of 0.13.
C11U U41A U43C U54C gave a self-cleavage of 0.14.
With C11U U41A U69C the self-cleavage was 0.16.
C11U U41C G55A showed a self-cleavage of 0.5.
Work on C11U U41C U43C yielded a self-cleavage of 0.22.
With C11U U41C U43C U54C A56G U60C U69C the self-cleavage was 0.07.
C11U U41C U48A U72G showed a self-cleavage of 0.09.
Work on C11U U41C U60A U69A U72A yielded a self-cleavage of 0.11.
With C11U U41C U69C the self-cleavage was 0.19.
C11U U43A A45G U66C showed a self-cleavage of 0.04.
In the case of C11U U43C G63A, the self-cleavage is reported as 0.12.
For C11U U43C U48C U51A U80C, the self-cleavage was 0.08.
C11U U43C U69A A77U showed a self-cleavage of 0.15.
In the case of C11U U48C A65G, the self-cleavage is reported as 0.08.
For C11U U49C A57G, the self-cleavage was 0.15.
In the case of C11U U51A U69C, the self-cleavage is reported as 0.07.
Variant C11U U54C A64G U66C U67C has a self-cleavage of 0.09.
Variant C11U U60A A64U has a self-cleavage of 0.16.
Variant C11U U60C U67C U74A has a self-cleavage of 0.09.
C11U U60G A64G gave a self-cleavage of 0.06.
In the case of C11U U66A U80C, the self-cleavage is reported as 0.1.
Variant C11U U69G U76C has a self-cleavage of 0.23.
C11U U74C U80G gave a self-cleavage of 0.84.
C12A A13G A18G showed a self-cleavage of 0.45.
C12A A13G C29A A64U showed a self-cleavage of 0.29.
With C12A A13G C39G U67C C68G the self-cleavage was 0.13.
Work on C12A A13G C44U yielded a self-cleavage of 0.39.
Work on C12A A13G U25C yielded a self-cleavage of 0.2.
With C12A A13G U74C A75G the self-cleavage was 1.01.
Variant C12A A13U A15G C39A A56G U69C has a self-cleavage of 0.12.
Variant C12A A13U A20G A21G U51C has a self-cleavage of 0.15.
C12A A13U A21G G24A A28G A64C U78C showed a self-cleavage of 0.03.
C12A A13U G16U U51G U54C A64G gave a self-cleavage of 0.09.
Work on C12A A13U U25A U60A G63A yielded a self-cleavage of 0.04.
Variant C12A A13U U31C U67C U72A has a self-cleavage of 0.13.
C12A A15C C38U U41G G73U showed a self-cleavage of 0.13.
C12A A15G A18U U76C A77U showed a self-cleavage of 0.3.
C12A A15G U26A A47G U54C gave a self-cleavage of 0.53.
C12A A15G U41C A77G showed a self-cleavage of 0.69.
For C12A A15U C27U U66C U76C, the self-cleavage was 0.
With C12A A15U U26C U31C U43A the self-cleavage was 0.4.
C12A A15U U66C U72A U78C showed a self-cleavage of 0.13.
C12A A15U U72A U78C showed a self-cleavage of 0.71.
With C12A A18G A28G A35U U43C the self-cleavage was 0.13.
For C12A A18G U31C, the self-cleavage was 0.26.
For C12A A18G U31G C39A U43A U72C, the self-cleavage was 0.07.
Work on C12A A18U A21G C40A U54A A65G yielded a self-cleavage of 0.19.
C12A A20C U41G U43A showed a self-cleavage of 0.06.
For C12A A20G A45G U60A U80C, the self-cleavage was 0.58.
Variant C12A A20G U25A A45U U54C A77G has a self-cleavage of 0.09.
For C12A A21G U25C A28U A45G U48C A64U, the self-cleavage was 0.11.
For C12A A21G U26A U80G, the self-cleavage was 0.54.
Work on C12A A28U A56G A64G yielded a self-cleavage of 0.68.
Variant C12A A28U U43A has a self-cleavage of 1.09.
In the case of C12A A35U U43C U80C, the self-cleavage is reported as 1.11.
With C12A A45U A47G A56G U67C U80A the self-cleavage was 0.1.
C12A A45U A57G A65C gave a self-cleavage of 0.
With C12A A47G U54G A56G U78G the self-cleavage was 0.6.
C12A A57C A75U gave a self-cleavage of 0.46.
C12A C17G G22U gave a self-cleavage of 0.44.
Variant C12A C17G G22U A28G has a self-cleavage of 0.23.
In the case of C12A C17G G33U C40U U80C, the self-cleavage is reported as 0.17.
For C12A C17U A64U, the self-cleavage was 0.24.
With C12A C17U C27G A56C the self-cleavage was 0.08.
With C12A C23G U60C the self-cleavage was 0.18.
In the case of C12A C27G A35U A45U A47C A56U, the self-cleavage is reported as 0.15.
In the case of C12A C27G A35U A56G, the self-cleavage is reported as 0.09.
With C12A C27G U31A A47C G61A G70A the self-cleavage was 0.04.
C12A C27G U43A A47C U49A gave a self-cleavage of 0.1.
Variant C12A C40A A45U has a self-cleavage of 0.
Work on C12A G16A U25C A35U U66C U76C U78A yielded a self-cleavage of 0.03.
For C12A G22U U48C, the self-cleavage was 0.04.
For C12A G36A A57G, the self-cleavage was 0.18.
C12A U25A A57G A75G U78C showed a self-cleavage of 0.1.
Work on C12A U25A A57G U78C yielded a self-cleavage of 0.14.
In the case of C12A U25A U41A, the self-cleavage is reported as 0.22.
For C12A U25C A45C C50U, the self-cleavage was 0.14.
C12A U26A A57G gave a self-cleavage of 0.5.
For C12A U26C A45U A47G U72G U80A, the self-cleavage was 0.23.
In the case of C12A U26C U31C C34U U43A U54A A65G, the self-cleavage is reported as 0.08.
Variant C12A U26C U41A U54C has a self-cleavage of 0.24.
C12A U26C U41A U69C gave a self-cleavage of 0.16.
Variant C12A U26G A45U has a self-cleavage of 0.14.
For C12A U31A U48C C62U U69C U76A, the self-cleavage was 0.13.
Work on C12A U43C U72C yielded a self-cleavage of 0.65.
For C12A U48C A64G, the self-cleavage was 0.29.
With C12A U48C U51C the self-cleavage was 0.58.
C12A U48C U72C gave a self-cleavage of 0.67.
Variant C12A U49C U60A has a self-cleavage of 0.15.
With C12A U51C U69A U78C the self-cleavage was 0.91.
For C12A U54A U80A, the self-cleavage was 1.2.
In the case of C12A U54C C62U, the self-cleavage is reported as 0.2.
For C12A U54C U60A U72C U80C, the self-cleavage was 0.54.
In the case of C12A U54C U72C U76A, the self-cleavage is reported as 1.21.
In the case of C12A U58G A75G, the self-cleavage is reported as 0.33.
Variant C12G A13C C44U has a self-cleavage of 0.08.
C12G A13C G19C C38A U67C showed a self-cleavage of 0.05.
With C12G A13G C27U C40U U41A A75G the self-cleavage was 0.21.
In the case of C12G A13G U78A, the self-cleavage is reported as 0.52.
With C12G A13U U25A the self-cleavage was 0.08.
For C12G A13U U25C C40A U41A U67C U69C, the self-cleavage was 0.09.
For C12G A13U U49C A56U U80C, the self-cleavage was 0.4.
C12G A15G A21G U31C U54C A65G U67C showed a self-cleavage of 0.
Work on C12G A18C U54C U66C G73A yielded a self-cleavage of 0.12.
For C12G A18G A45G A56G, the self-cleavage was 0.2.
For C12G A18U U26C, the self-cleavage was 0.06.
Work on C12G A20U U25A U60G G63C yielded a self-cleavage of 0.06.
C12G A28U U51A U66C U78C gave a self-cleavage of 0.07.
C12G A35G C38G U60C C71U gave a self-cleavage of 0.04.
C12G A35G G42A C44A U60A gave a self-cleavage of 0.
C12G A35G U60A U72C gave a self-cleavage of 0.12.
With C12G A45C A77G the self-cleavage was 0.08.
Variant C12G A45G U69A U76C has a self-cleavage of 0.15.
In the case of C12G A77U U78C, the self-cleavage is reported as 0.45.
C12G C17A U26A U31G G33C U48C U80C showed a self-cleavage of 0.04.
For C12G C17G A28G U31C C59U, the self-cleavage was 0.05.
C12G C17G G24A C29G showed a self-cleavage of 0.2.
C12G C23A A56U U69A showed a self-cleavage of 0.08.
C12G C29G U78C showed a self-cleavage of 0.06.
C12G C37G U43A A47G U51C showed a self-cleavage of 0.29.
With C12G C40U U41A U43A A57G U60C the self-cleavage was 0.15.
C12G C44A U69C gave a self-cleavage of 0.13.
In the case of C12G G16A A35U U78C, the self-cleavage is reported as 0.05.
For C12G G16U A18G U49C A64G U66C, the self-cleavage was 0.05.
C12G U25A U58C U74A showed a self-cleavage of 0.04.
In the case of C12G U25C A64U, the self-cleavage is reported as 0.07.
Variant C12G U26A C32G U54A U66C has a self-cleavage of 0.05.
For C12G U26A U51G A64G, the self-cleavage was 0.23.
C12G U26A U66C gave a self-cleavage of 0.12.
In the case of C12G U31A A56G, the self-cleavage is reported as 0.5.
Work on C12G U31C U41G A45G A56G yielded a self-cleavage of 0.36.
With C12G U41C U67G the self-cleavage was 0.32.
C12G U41G A64U U76A gave a self-cleavage of 0.07.
C12G U49C U67C gave a self-cleavage of 0.09.
In the case of C12G U51C A56G C62G A65G, the self-cleavage is reported as 0.14.
For C12G U54C U60C U72A A75G, the self-cleavage was 0.07.
In the case of C12U A13C U43A A45C A64G U66C, the self-cleavage is reported as 0.21.
For C12U A13G A18G U26A C40U U43A, the self-cleavage was 0.23.
Work on C12U A13G A35G U49A U54C yielded a self-cleavage of 0.69.
Work on C12U A13G U25C A28U C62U A65U yielded a self-cleavage of 0.11.
Variant C12U A13G U26A A35G U43G G46A has a self-cleavage of 0.09.
C12U A13G U26C C44U U54A gave a self-cleavage of 0.07.
Variant C12U A13G U31A G33A A56G has a self-cleavage of 0.1.
For C12U A13G U41A U48C, the self-cleavage was 0.13.
C12U A13U A15G C29U U72A showed a self-cleavage of 0.19.
For C12U A13U A18U A45G, the self-cleavage was 0.42.
Variant C12U A13U G16A A20G U41G U72C has a self-cleavage of 0.06.
Variant C12U A15C A20G G22A has a self-cleavage of 0.11.
